Source: publication PMC4336329 (PLoS ONE, 2015)
Screen size: about 310,000 compounds; about 2,200 (0.71%) showed an effect of 50% or more. Effects have a minus sign here. Some of the results follow.

target: human ether-à-go-go-related gene (hERG) potassium channel (human, UniProt Q12809); assay: primary screen, population patch clamp on CHO cells stably expressing hERG
Sequence (Q12809 whole entry, looked up): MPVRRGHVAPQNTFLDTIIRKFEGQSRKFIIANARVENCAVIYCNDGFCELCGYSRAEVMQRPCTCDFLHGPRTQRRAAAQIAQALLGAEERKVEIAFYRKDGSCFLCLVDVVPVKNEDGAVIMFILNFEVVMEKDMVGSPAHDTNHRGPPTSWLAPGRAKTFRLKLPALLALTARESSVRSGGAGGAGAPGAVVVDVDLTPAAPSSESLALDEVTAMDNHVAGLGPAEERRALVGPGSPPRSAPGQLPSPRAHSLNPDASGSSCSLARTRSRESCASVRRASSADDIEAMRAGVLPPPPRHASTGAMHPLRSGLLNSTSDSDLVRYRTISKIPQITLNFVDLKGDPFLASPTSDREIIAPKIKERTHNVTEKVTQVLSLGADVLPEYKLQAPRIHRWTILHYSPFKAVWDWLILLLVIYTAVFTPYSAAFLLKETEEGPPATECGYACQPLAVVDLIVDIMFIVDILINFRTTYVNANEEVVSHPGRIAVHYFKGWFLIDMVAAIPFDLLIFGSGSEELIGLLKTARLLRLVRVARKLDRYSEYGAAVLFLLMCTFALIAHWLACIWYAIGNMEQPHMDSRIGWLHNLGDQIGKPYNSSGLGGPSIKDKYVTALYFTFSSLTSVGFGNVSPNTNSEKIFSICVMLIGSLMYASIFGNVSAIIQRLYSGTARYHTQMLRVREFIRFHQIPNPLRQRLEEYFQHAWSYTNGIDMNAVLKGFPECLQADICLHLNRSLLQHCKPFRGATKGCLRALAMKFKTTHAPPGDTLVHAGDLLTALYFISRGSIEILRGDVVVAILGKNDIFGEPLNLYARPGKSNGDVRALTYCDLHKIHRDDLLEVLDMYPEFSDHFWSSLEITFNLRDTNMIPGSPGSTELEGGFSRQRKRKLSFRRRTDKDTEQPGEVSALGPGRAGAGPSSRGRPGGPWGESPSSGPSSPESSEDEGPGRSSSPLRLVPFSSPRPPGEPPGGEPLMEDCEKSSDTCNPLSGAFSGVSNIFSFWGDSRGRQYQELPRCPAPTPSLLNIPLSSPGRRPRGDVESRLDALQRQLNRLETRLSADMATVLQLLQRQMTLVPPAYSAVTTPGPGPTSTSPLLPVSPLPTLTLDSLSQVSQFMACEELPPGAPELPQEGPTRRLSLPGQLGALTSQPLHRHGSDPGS

| SMILES | hERG current change (%, negative = inhibition) at 1uM [%] |
| --- | --- |
| Cc1c(-c2nn(C)c(=O)c3ccccc23)oc2ccc(F)cc2c1=O | 8.59 |
| CCn1c(CNC(=O)c2ccc(OC)cc2)nnc1SC | 14.3 |
| Cc1nc(N2CCN(C)CC2)c2c3c(sc2n1)CCCC3 | 6.16 |
| COc1ccc(-c2coc3cc(O)cc(O)c3c2=O)cc1 | 5.24 |
| CCOc1ccc(C(=O)C(C)OC(=O)CN2C(=O)NC(C)(C)C2=O)cc1 (stereo not shown) | 3.7 |
| COC(=O)c1ccc(/C=N/NC(=O)CNc2cccc(C)c2)cc1 | 5.65 |
| CCOP(=O)(OCC)C(NC(=O)c1ccccc1)C(Cl)(Cl)Cl (stereo not shown) | 0.5 |
| O=C(OCC(=O)N1CCCC1)c1c(Cl)cccc1Cl | 14.6 |
| COc1ccc(S(=O)(=O)NNC(N)=S)cc1 | 11.1 |
| C=CCNC(=O)c1ccc(OC)cc1OC | 10.9 |
| Cc1ccc(CCN2CC(C(=O)NCCCN(C)Cc3ccccc3)CC2=O)cc1 (stereo not shown) | 5.08 |
| Cc1ccc(NC(=O)CSCC(=O)N2CCOCC2)cc1 | 8.03 |
| Cc1ccc(SCC(=O)N2CCC(C(N)=O)CC2)cc1 | 14.7 |
| CC(C)C(=O)NC(c1ccco1)c1c(O)ccc2ccccc12 (stereo not shown) | 17 |
| COc1cccc2c1C(=O)CC1C2CCC2CC(=O)CCC21C (stereo not shown) | 1.41 |
| NC1=NC2(CCCCC2)n2c(nc3ccccc32)N1 | 4.39 |
| Cc1ccc(CSc2nnc(CC(=O)Nc3ccc(C)cc3)n2C)cc1 | -4.45 |
| CCN(CC)S(=O)(=O)c1ccc(N2CCCC2)c(NC(=O)c2ccc(N3CCCC3=O)cc2)c1 | 10.7 |
| Nc1cc(=O)[nH]c(=O)n1Cc1ccco1 | -0.744 |
| CCNc1nc(C(=O)O)nc(N2CCOCC2)n1 | 12.3 |
| O=C(N/N=C/c1cn(-c2ccccc2)nc1-c1ccccc1)c1ccco1 | 8.56 |

| SMILES | hERG current change (%, negative = inhibition) at 1uM [%] |
| --- | --- |
| Cc1nn(Cc2ccccc2Cl)c2sc(C(=O)OC3CCCC3=O)cc12 (stereo not shown) | -0.756 |
| CCN(CC)C(=O)C1CCCN(c2ncnc3c2cnn3-c2cccc(C)c2)C1 (stereo not shown) | 11.5 |
| Cc1ccc(Nc2nnc(SC3CCOC3=O)s2)cc1 (stereo not shown) | 13.8 |
| O=C(Nc1nc2ccccc2[nH]1)c1ccc(F)cc1 | 1.73 |
| CC(C)OCCCNC(=O)Cn1ccc2cc(S(=O)(=O)N3CCCCCC3)ccc21 | 7.02 |
| CCOC(=O)c1ccc(S(=O)(=O)N2CCC(N3CCCCC3)CC2)cc1 | -0.396 |
| Cc1ccc(SCC(=O)OC(C)C(=O)NCc2ccccc2)cc1 (stereo not shown) | -2 |
| CCOC(=O)C1(CCOc2ccccc2)CCN(Cc2cccc(OC)c2O)CC1 | -54.1 |
| Cc1csc(SCC(=O)Nc2c(C)n(C)n(-c3ccccc3)c2=O)n1 | 12.1 |
| Cc1cccc(NC(=O)C2CCCN2C(=O)Oc2ccccc2)c1 (stereo not shown) | 0.962 |
| Cc1ccc(CN2C(=O)C3CCCN3c3ncccc32)cc1 (stereo not shown) | 12.7 |
| Cc1ccc(N2C3=C(C(=O)CC(C)(C)C3)C(c3cn(C)nc3C)C3=C2CC(C)(C)CC3=O)cc1 | 7.22 |
| CCc1ccc(OC(=O)c2cncc(Br)c2)cc1 | 14.9 |
| O=C1CC(SC2=NCCS2)C(=O)N1c1ccc(Cl)cc1 (stereo not shown) | 0.889 |
| COc1ccc(NC(=S)N(CCN(C)C)C(C)c2ccco2)cc1 (stereo not shown) | -1.04 |
| CC(NC(=O)c1cncc(Br)c1)c1ccc(S(N)(=O)=O)cc1 (stereo not shown) | -2 |
| COc1cc(C(=O)N/N=C/c2ccc(OC(=O)c3cccc(C)c3)c(OC)c2)ccc1O | 9.86 |
| CCCCCC(=O)NNC1CC(=O)N(c2cccc(OCC)c2)C1=O (stereo not shown) | 10.2 |
| COC(=O)c1ccc(NC(=O)Cn2nnc3ccccc32)cc1 | 11.9 |
| CC(C)(C)C(=O)OCc1cn(-c2ccc(Cl)cc2)nn1 | 0.569 |
| CN(c1ccccc1)c1ncccn1 | 13.6 |

| SMILES | hERG current change (%, negative = inhibition) at 1uM [%] |
| --- | --- |
| O=[N+]([O-])c1ccc2[nH]c3c(c2c1)CCCC3 | 13.8 |
| Cc1ccc(NC(=O)C(=O)NCc2ccc(/C=N/NC(=O)c3c(C)nc4ccccn34)o2)cc1 | 10.4 |
| O=C1OC(c2ccc3c(c2)OCO3)=N/C1=C\c1ccc(C(=O)O)cc1 | 17.4 |
| COc1cc2c(cc1OC)C(C)N(C(=O)c1cc3c(s1)-c1ccccc1OC3)CC2 (stereo not shown) | 6.48 |
| Cc1cc2cc(CCNC(=O)C3c4ccccc4Oc4ccccc43)c(=O)[nH]c2cc1C | -1.73 |
| Cc1c(NC(=O)OCCNC(=O)Nc2ccccc2)sc(=S)n1C | 16 |
| Oc1c(C=NCc2ccccc2)sc2ccccc12 | 13.3 |
| CCC(C)(C(=O)NC1CCCCC1)N(Cc1ccco1)C(=O)c1ccccn1 (stereo not shown) | -2.32 |
| CNC(=O)c1sccc1S(=O)(=O)Cc1c(Cl)cccc1Cl | 3.02 |
| COc1ccccc1-c1cn(C(C)(C)C)nc1C | 10.2 |
| CC(=O)C1=C(O)C(=O)N(CCO)C1c1ccccc1 (stereo not shown) | 8.42 |
| O=C1c2ccccc2-c2nc3ncnn3c(-c3ccccc3Cl)c21 | 5.18 |
| CCOc1cc(-c2cc(-c3ccc(NC(C)=O)cc3)nc(N)c2C#N)ccc1O | 11.4 |
| Cc1ccc(Cc2nc(-c3cccnc3)no2)cc1 | 11.6 |
| COC(=O)c1ccc(C(=S)NCC2(N(C)C)CCCCC2)cc1 | 13 |
| COc1ccc(C2=NOC(C(=O)NCc3ccc(F)cc3)C2)cc1 (stereo not shown) | -8.9 |
| C=CCn1c(O)c(N=NC(=S)Nc2cccc(C)c2)c2ccccc21 | 2.21 |
| CC(=O)c1ccccc1OCC(O)Cn1ccnc1 (stereo not shown) | 16.6 |
| NS(=O)(=O)c1ccc(CCNC(=O)c2cc(-c3cc(Cl)ccc3O)n[nH]2)cc1 | 11.9 |
